Each structure is given as a SMILES string. Screen size: about 310,000 compounds; about 14,000 (4.5%) showed an effect of 50% or more. Effects have a minus sign here. This is one part of the list.
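Further: peak tail current of the secondary pulse compared with the same well before compound.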

The assay deals with human ether-à-go-go-related gene (hERG) potassium channel (human, UniProt Q12809). As to the kind of experiment: primary screen, population patch clamp on CHO cells stably expressing hERG.
human ether-à-go-go-related gene (hERG) potassium channel, sequence (Q12809 whole entry, looked up): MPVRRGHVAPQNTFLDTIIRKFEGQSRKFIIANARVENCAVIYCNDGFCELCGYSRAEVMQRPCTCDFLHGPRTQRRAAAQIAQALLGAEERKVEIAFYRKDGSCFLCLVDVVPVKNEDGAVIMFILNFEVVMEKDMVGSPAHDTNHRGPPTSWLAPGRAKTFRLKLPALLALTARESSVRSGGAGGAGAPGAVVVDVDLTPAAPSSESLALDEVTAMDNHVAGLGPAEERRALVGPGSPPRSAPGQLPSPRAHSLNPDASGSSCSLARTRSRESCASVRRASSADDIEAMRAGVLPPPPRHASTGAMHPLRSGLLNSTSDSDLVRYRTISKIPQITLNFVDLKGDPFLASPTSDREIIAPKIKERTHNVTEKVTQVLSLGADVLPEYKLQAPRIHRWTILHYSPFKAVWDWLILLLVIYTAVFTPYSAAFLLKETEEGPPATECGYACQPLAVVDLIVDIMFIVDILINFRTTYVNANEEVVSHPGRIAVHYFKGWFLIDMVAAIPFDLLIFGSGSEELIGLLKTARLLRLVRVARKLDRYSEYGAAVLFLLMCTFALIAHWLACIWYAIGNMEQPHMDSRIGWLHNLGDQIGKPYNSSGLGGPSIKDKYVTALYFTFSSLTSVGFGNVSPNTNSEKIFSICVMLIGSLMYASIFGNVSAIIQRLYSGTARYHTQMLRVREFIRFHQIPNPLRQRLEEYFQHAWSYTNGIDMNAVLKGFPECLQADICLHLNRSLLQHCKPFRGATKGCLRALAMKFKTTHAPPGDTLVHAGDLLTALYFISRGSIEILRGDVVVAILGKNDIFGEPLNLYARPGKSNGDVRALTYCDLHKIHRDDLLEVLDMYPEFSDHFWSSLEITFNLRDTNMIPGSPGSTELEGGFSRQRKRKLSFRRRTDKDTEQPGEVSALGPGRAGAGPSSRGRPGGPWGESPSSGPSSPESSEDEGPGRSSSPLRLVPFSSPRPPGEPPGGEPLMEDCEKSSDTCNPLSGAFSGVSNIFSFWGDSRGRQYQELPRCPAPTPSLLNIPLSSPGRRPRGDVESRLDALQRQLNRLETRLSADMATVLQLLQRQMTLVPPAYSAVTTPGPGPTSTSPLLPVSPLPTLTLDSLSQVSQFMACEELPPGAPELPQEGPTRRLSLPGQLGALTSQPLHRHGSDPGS
Turning to `COc1cc([N+](=O)[O-])ccc1NC(=O)Nc1ccc2c(c1)OCCO2`, the “hERG current change (%, negative = inhibition) at 10uM” value stood at 25.3%.

Turning to `Cc1[nH]n(-c2ccccc2)c(=O)c1C(=O)c1cccc(F)c1`, the “hERG current change (%, negative = inhibition) at 10uM” value was found to be 22.5%.

As to `O=C(CN1CCN(c2ccccn2)CC1)Nc1ccccc1`, the “hERG current change (%, negative = inhibition) at 10uM” value is -9.4%.

On to `CCc1ccccc1NC(=O)C1=CC(c2cccs2)=NS(=O)(=O)N1C`, for which the “hERG current change (%, negative = inhibition) at 10uM” value is -8.42%.

Regarding `CC(=O)NCCc1csc(-c2ccccc2)n1`, the “hERG current change (%, negative = inhibition) at 10uM” value amounted to 7.78%.

On to `CCN(CC)c1ccc(S(=O)(=O)N2CCOCC2)cc1NS(C)(=O)=O`, for which the “hERG current change (%, negative = inhibition) at 10uM” value is on record as 23%.

In the case of `Cc1ccc(C(=O)OCC(=O)Nc2ccc3[nH]c(=O)[nH]c3c2)cc1[N+](=O)[O-]`, the “hERG current change (%, negative = inhibition) at 10uM” value stood at 3.1%.

In the case of `COc1ccc(-c2cccc(C3CC=CC4C3C(=O)N(Cc3ccccc3)C4c3ccc4ccccc4c3)c2)cc1` (stereo not drawn), the “hERG current change (%, negative = inhibition) at 10uM” value is listed as 11.1%.

In the case of `Cc1cc(=O)[nH]c(NN=C(CC(C)C)CC(C)C)n1`, the “hERG current change (%, negative = inhibition) at 10uM” value was 2.8%.

On to `CCOC1CS(=O)(=O)CC1OCC` (stereo not drawn), for which the “hERG current change (%, negative = inhibition) at 10uM” value worked out at 8.36%.

Take `O=C(CSc1nc(=O)n2ccccc2n1)Nc1cccc2ccccc12`: the “hERG current change (%, negative = inhibition) at 10uM” value is recorded as -10.4%.

Regarding `O=S(=O)(Cc1ccccc1)Oc1ccccc1`, the “hERG current change (%, negative = inhibition) at 10uM” value was -33.8%.

Take `CCCCNC(=O)N1CCOCCOCCN(C(=O)NCCCC)CCOCC1`: the “hERG current change (%, negative = inhibition) at 10uM” value is listed as -18.6%.

As to `CN(C)c1ccc(/C=C/C(=O)c2c(O)c3ccccc3oc2=O)cc1`, the “hERG current change (%, negative = inhibition) at 10uM” value stood at 5.85%.

With `CN(Cc1cccs1)C(=O)CSc1nnnn1C`, the “hERG current change (%, negative = inhibition) at 10uM” value is listed as 2.42%.

As to `CCCCSc1nc(O)c(C2OC(=O)c3c2ccc(OC)c3OC)c(=O)n1-c1ccccc1` (stereo not drawn), the “hERG current change (%, negative = inhibition) at 10uM” value amounted to 17%.

For the compound `COc1ccc(N(CC(=O)NC2CCCC2)C(=O)Cn2nnc(-c3ccc(OC)c(OC)c3)n2)c(OC)c1`, the “hERG current change (%, negative = inhibition) at 10uM” value was -40.8%.

With `Cc1nc(CS(=O)(=O)c2ccccn2)sc1C(=O)NNC(=O)c1ccc(Cl)cc1`, the “hERG current change (%, negative = inhibition) at 10uM” value was -1.57%.

On to `NC(=O)c1ccc(NC(=O)C2CCCC2)cc1`, for which the “hERG current change (%, negative = inhibition) at 10uM” value stood at 16.7%.

For the compound `CC(C)Oc1ccc2nnnn2n1`, the “hERG current change (%, negative = inhibition) at 10uM” value was found to be 9.77%.

On to `Cc1cc2c(nn1)CCc1nonc1-2`, for which the “hERG current change (%, negative = inhibition) at 10uM” value came to 4.93%.

Consider `Clc1ccc(Cn2nnc3ccccc32)cc1`, for which the “hERG current change (%, negative = inhibition) at 10uM” value is 8.43%.

Regarding `Cc1cc(C)nc(SCc2csc(N)n2)n1`, the “hERG current change (%, negative = inhibition) at 10uM” value is 6.03%.

Turning to `CCCN(Cc1cc2ccc(C)cc2[nH]c1=O)S(=O)(=O)c1ccccc1`, the “hERG current change (%, negative = inhibition) at 10uM” value came out at 6.34%.

In the case of `CC(C)Cc1nnc(NC(=O)CCC(=O)NC2CCCCC2)s1`, the “hERG current change (%, negative = inhibition) at 10uM” value stood at 5.17%.

Regarding `CCN1CCC(O)(C#Cc2ccccc2)CC1`, the “hERG current change (%, negative = inhibition) at 10uM” value amounted to 9.73%.

For the compound `CC(O)Cn1nc([N+](=O)[O-])nc1N` (stereo not drawn), the “hERG current change (%, negative = inhibition) at 10uM” value turned out to be 11.8%.

`CCOC(=O)C1CCN(S(=O)(=O)c2ccc3c(c2)N(C)C(=O)CC(=O)N3C)CC1`: the “hERG current change (%, negative = inhibition) at 10uM” value is reported as -11.7%.

Turning to `CC(=O)Nc1ccc2nc(NC(=O)COc3ccccc3)sc2c1`, the “hERG current change (%, negative = inhibition) at 10uM” value is reported as 21.5%.

Take `COc1ccc(-c2cnnc(N/N=C/c3ccc(O)c(OC)c3)n2)cc1`: the “hERG current change (%, negative = inhibition) at 10uM” value is -50.1%.

Regarding `Cc1ccc(CS(=O)(=O)CCC(=O)NCCCN2CCCC2)cc1`, the “hERG current change (%, negative = inhibition) at 10uM” value amounted to 13.1%.

On to `O=C(Nc1ccc(Cl)cc1C(=O)NCc1cccnc1)c1ccco1`, for which the “hERG current change (%, negative = inhibition) at 10uM” value is reported as -4.78%.

`COCCCn1c(SCC(=O)Nc2cccc(C(=O)OC)c2)nnc1-c1ccncc1`: the “hERG current change (%, negative = inhibition) at 10uM” value is reported as -15.8%.

Turning to `CCc1nnc(NC(=O)CSc2nnc(CNC(=O)c3ccc(OC)c(OC)c3)o2)s1`, the “hERG current change (%, negative = inhibition) at 10uM” value was -0.109%.

`Cc1c(C(=O)Nc2nc3ccccc3[nH]2)oc2ccccc12`: the “hERG current change (%, negative = inhibition) at 10uM” value is listed as -13%.

Regarding `COc1ccc(S(=O)(=O)N2CCCCC2)cc1NC(=O)CN1CCN(C(C)=O)CC1`, the “hERG current change (%, negative = inhibition) at 10uM” value was 5.51%.

With `C#CCOCCOCCOCCNc1nc(N2CCN(C(=O)[C@H]([C@@H](C)CC)n3cc(CCCC[NH3+])nn3)CC2)nc(N2CCN(C(=O)[C@H]([C@@H](C)CC)n3cc(CCC[NH+]=C(N)N)nn3)CC2)n1.[Cl-]`, the “hERG current change (%, negative = inhibition) at 10uM” value is given as 14.1%.

For the compound `Cc1noc(C)c1COC(=O)c1cc2c(C)nn(-c3ccc(F)cc3)c2s1`, the “hERG current change (%, negative = inhibition) at 10uM” value is 9.42%.

As for `CC(C)SCCCOc1ccc(C(C)(C)C)cc1`, the “hERG current change (%, negative = inhibition) at 10uM” value worked out at 13%.

For the compound `O=C(CSc1nc2ccccc2c(=O)n1Cc1ccc(F)cc1)NCc1cccs1`, the “hERG current change (%, negative = inhibition) at 10uM” value is on record as -14%.

For the compound `O=Cc1ccccc1OCCCOc1cccc2cccnc12`, the “hERG current change (%, negative = inhibition) at 10uM” value is -4.59%.

For `Cn1c(SCc2ccc(F)cc2)nnc1-c1ccccn1`, the “hERG current change (%, negative = inhibition) at 10uM” value is -1.53%.

`O=C1OC(C(=O)Nc2nccs2)Cc2ccccc21` (stereo not drawn): the “hERG current change (%, negative = inhibition) at 10uM” value is recorded as 12.7%.

For the compound `O=C1C2C3C=CC(CC3)C2C(=O)N1c1ccccc1F` (stereo not drawn), the “hERG current change (%, negative = inhibition) at 10uM” value worked out at 21.3%.

With `O=[N+]([O-])c1cccnc1N1CCCCC1`, the “hERG current change (%, negative = inhibition) at 10uM” value is 5.7%.

The values above are taken from article PMC4336329 (PLoS ONE, 2015).
